# PubChem BioAssay AID504333 (National Center for Advancing Translational Sciences (NCATS), 2011)
# The campaign covered roughly 360,000 compounds. About 16,000 (4.4%) were called active. This list was built around the results that the source calls inconclusive (neither active nor inactive); the mix of calls is not that of the screen. Calls come from the whole dose curve; as a rule, active = well fitted inhibition curve with a large enough effect; inconclusive = small, poorly fitted or top-dose-only effect; inactive = no such curve, though single readings can be large or run the other way. Potencies beside an inconclusive call are fits to weak or partial responses and may not hold up.
# Target: Bromodomain adjacent to zinc finger domain protein 2B (Homo sapiens) (UniProt Q9UIF8)
# Assay: qHTS Assay for Inhibitors of BAZ2B; note: nearly all actives have a fitted effect of over 60% in size
# Conditions: AlphaScreen BAZ2B-H3K14Ac peptide displacement; series mostly up to 114 µM
# Text: BAZ2B (bromodomain adjacent to zinc finger domain, 2B) belongs to a family of ubiquitously expressed bromodomain containing proteins, which biological function has not yet been elucidated. […] The interaction of BAZ2B with ISWI mediated by the BAZ1 motif has recently been described. […] The protocol is based on the AlphaScreen (PerkinElmer) displacement assay developed by NCGC [5], but uses the peptide ligand Biot-H3K14Ac, a high affinity binding partner for BAZ2B, in an AlphaScreen format. Although AlphaScreen has significant advantages with its utility in a variety of epigenetic target assays, the primary screening data provided in this deposition should be used with caution due to the prevalence of screening artifacts. The top compound concentration tested was 110uM in this assay, which increases number of actives and potential artifacts. An AlphaScreen counterscreen is highly recommended to be run against any putative actives to eliminate non-specific artifacts. Alternatively, one can use other AlphaScreen assays in PubChem to filter out promiscuous hits. Eberharter, A. et al. ACF1 improves the effectiveness of nucleosome mobilization by ISWI through PHD-histone contacts. The EMBO journal 23, 4029-4039. 2004. PMID: 15457208 [2] Jones, M.H. et al. A novel family of bromodomain genes. Genomics 63, 40-45. 2000. PMID: 10662543 [3] Yasgar, et al. Compound Management for Quantitative High-Throughput Screening. JALA. 2008 Apr;13(2):79-89. PMID: 18496600 [4] Inglese, et al. Quantitative high-throughput screening: a titration-based approach that efficiently identifies biological activities in large chemical libraries. Proc Natl Acad Sci. 1;103(31):11473-8. 2006. PMID: 16864780 [5] Quinn et al. A chemiluminescence-based method for identification of histone lysine methyltransferase inhibitors. Mol Biosyst 6(5): 782-8. 2010. PMID: 20567762 [6] Baell,Holloway. New substructure filters for removal of pan assay interference compounds (PAINS) from screening libraries and for their exclusion in bioassays. J Med Chem. 53(7):2719-40. 2010. PMID: 20131845 NIH Molecular Libraries Probe Production Network [MLPCN] NIH Chemical Genomics Center [NCGC] Structural Genomics Consortium (SGC) NIH Grant: 5U54 MH084681-02
# To each well of a 1,536w plate, 2ul of BAZ2B protein (final 50nM) and 1ul biotinylated histone peptide acetylated at Lys14 [b-H3(5-23)K14Ac] (final 50nM) were added in 1x PBS buffer, pH 7.4, containing 0.01% Tween-20, using a nanoliter dispenser. Formation of a protein-peptide complex proceeded at room temperature for 30 min. A Kalypsys pin-tool was employed to transfer 23 nL of library compound solution in DMSO to each well. Following a 30 min incubation of the protein-peptide complex with compounds at room temperature, a mixture of 40 ug/mL each streptavidin-coated donor and nickel chelate acceptor AlphaScreen beads (final 10 ug/mL) were added in a 1ul dispense for a final volume of 4ul. A brief centrifugation followed (1000rpm, 1 min) and were then incubated protected from the light for 20 min at room temperature. Plates were read on an EnVision multilabel plate reader using the 1,536 plate HTS AlphaScreen aperture (excitation time 80 ms, measurement time 240 ms).
# Potency is the fitted concentration of half-maximal effect; tags give direction and shape of the fitted curve.
# Chain of UniProt Q9UIF8 (Q9UIF8 whole entry, looked up, the tested form may be a part): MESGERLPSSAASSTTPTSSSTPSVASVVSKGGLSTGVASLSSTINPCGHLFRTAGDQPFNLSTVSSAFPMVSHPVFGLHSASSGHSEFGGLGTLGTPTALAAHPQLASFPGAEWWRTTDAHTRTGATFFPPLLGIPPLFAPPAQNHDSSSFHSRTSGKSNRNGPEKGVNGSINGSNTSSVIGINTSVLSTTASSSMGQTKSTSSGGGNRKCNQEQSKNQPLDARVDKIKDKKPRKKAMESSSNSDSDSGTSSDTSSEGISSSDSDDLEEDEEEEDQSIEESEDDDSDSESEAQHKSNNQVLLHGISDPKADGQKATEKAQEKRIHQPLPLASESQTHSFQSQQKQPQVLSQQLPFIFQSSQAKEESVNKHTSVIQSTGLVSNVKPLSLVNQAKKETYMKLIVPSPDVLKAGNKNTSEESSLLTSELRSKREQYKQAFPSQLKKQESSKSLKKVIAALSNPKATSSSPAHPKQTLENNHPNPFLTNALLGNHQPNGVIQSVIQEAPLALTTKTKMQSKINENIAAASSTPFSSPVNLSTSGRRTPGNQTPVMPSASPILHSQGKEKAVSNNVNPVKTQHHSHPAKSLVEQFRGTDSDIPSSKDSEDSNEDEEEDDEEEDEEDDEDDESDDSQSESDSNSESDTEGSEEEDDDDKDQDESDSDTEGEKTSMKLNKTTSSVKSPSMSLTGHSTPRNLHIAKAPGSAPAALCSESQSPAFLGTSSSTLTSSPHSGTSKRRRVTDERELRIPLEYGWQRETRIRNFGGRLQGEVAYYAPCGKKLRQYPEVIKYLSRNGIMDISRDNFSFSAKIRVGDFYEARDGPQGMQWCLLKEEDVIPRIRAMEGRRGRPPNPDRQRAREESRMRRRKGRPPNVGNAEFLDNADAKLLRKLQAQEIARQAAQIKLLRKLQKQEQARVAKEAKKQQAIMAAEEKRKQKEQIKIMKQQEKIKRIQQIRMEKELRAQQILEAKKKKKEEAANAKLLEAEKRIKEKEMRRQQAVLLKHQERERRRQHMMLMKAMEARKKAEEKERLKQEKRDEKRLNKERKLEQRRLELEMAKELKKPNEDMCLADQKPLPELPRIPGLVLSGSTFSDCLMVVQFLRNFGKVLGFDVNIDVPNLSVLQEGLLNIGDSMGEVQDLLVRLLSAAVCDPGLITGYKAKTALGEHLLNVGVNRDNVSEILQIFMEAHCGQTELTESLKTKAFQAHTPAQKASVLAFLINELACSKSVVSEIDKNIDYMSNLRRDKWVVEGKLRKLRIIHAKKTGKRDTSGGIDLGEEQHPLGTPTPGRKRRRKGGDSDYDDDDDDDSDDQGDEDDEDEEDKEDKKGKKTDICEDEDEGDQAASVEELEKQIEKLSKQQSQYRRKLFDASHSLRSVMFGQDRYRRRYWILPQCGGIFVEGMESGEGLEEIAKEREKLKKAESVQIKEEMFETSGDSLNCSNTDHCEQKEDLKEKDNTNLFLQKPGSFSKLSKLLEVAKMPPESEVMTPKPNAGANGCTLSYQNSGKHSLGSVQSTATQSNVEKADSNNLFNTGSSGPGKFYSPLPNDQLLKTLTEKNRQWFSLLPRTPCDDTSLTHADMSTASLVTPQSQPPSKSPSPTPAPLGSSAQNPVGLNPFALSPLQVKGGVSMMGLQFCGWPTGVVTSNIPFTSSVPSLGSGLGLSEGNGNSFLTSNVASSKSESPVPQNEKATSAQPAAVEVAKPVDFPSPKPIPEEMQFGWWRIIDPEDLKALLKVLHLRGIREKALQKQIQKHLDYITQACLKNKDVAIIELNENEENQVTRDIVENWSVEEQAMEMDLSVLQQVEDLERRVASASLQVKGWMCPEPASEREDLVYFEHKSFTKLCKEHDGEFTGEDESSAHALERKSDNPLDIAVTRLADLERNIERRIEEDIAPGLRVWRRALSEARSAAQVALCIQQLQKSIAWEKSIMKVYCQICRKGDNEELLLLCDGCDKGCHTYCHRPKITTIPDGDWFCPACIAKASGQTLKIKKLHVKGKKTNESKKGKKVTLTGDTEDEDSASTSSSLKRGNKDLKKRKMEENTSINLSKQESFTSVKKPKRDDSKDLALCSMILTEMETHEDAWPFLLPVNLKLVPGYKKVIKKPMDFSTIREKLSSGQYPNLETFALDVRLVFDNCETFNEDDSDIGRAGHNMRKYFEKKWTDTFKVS
row,Structure (SMILES),Potency
1,O=c1[nH]c(=O)n(Cc2ccccc2)c(O)c1C=NCCCn1ccnc1,"inconclusive: 89.1 µM [inhibitor, single point]"
2,COc1ccc(Cn2c(O)c(C=Nc3c(C)n(C)n(-c4ccccc4)c3=O)c(=O)[nH]c2=O)cc1,"inconclusive: 89.1 µM [inhibitor, single point]"
3,CCN(CC)c1ccc(N=Cc2c(O)n(Cc3ccco3)c(=O)[nH]c2=O)cc1,inactive
4,Cc1ccc2c(c1)C1CN(C)CCC1N2C(=O)COc1ccc(N(C)S(=O)(=O)c2cccs2)cc1 (stereo not drawn),"inconclusive: 70.8 µM [inhibitor, single point]"
5,CN(C[C@H](Cc1ccccc1)N(C[C@H](Cc1ccccc1)N(CC1(c2ccccc2)CC1)N=O)N=O)N=O,"inconclusive: 79.4 µM [inhibitor, single point]"
6,CCC(C)N1C(=O)/C(=C\c2cnc(N(C)C)nc2)C(=O)NC1=S (stereo not drawn),"inconclusive: 79.4 µM [inhibitor, partial curve]"
7,CCCCC(=O)N/N=C/c1c(O)n(Cc2ccco2)c(=O)[nH]c1=O,active: 50.1 µM
8,Cc1cc(-n2c(/C=C/c3cccs3)nc3ccccc3c2=O)ccc1Br,"inconclusive: 10 µM [inhibitor, full curve]"
9,CCOC(=O)CC(NC(=O)C(Cc1ccc(N(CCCl)CCCl)cc1)NC(C)=O)C(=O)OCC (stereo not drawn),active: 20 µM
10,Cn1c(=O)n(C)c2cc([N+](=O)[O-])c(N3CCNCC3)cc21,"inconclusive: 79.4 µM [inhibitor, single point]"
11,C=CCn1c(O)c(/C(CC)=N/NC(=S)Nc2ccccc2)c(=O)[nH]c1=O,inactive
12,C=CCn1c(O)c(C(CC)=Nc2cccc(C(=O)O)c2)c(=O)[nH]c1=O,inactive
13,Cc1oc(-c2ccc(Cl)cc2)nc1CN1CCC(C(=O)NCCCN2CCN(c3cccc(Cl)c3)CC2)CC1,"inconclusive: 31.6 µM [inhibitor, partial curve]"
14,Cn1cccc1/C=C1/C(=O)NC(=S)N(Cc2ccc(F)cc2)C1=O,active: 25.1 µM
15,CSc1ccc(CN2CCN(Cc3ccccc3Cl)CC2)cc1,active: 17.8 µM
16,O=C1/C(=C/c2cccnc2)N2CCC1CC2,inactive
17,CC1CCC(NCCc2ccc3c(c2)OCO3)CC1 (stereo not drawn),"inconclusive: 89.1 µM [inhibitor, single point]"
18,O=C1NC(=O)C(=Cc2ccc(-c3ccc(F)cc3O)o2)C(=O)N1,active: 56.2 µM
19,CCC(=O)Nc1nc2ccccc2n1CCN(C)C,"inconclusive: 89.1 µM [inhibitor, single point]"
20,COc1cc(CNCCc2c[nH]c3ccccc23)cc(OC)c1,active: 50.1 µM
21,COC(=O)C1=C(c2cccc(OCc3ccccc3)c2)C[C@@H]2CC[C@H]1N2C(=O)NC1CCN(Cc2ccccc2)CC1,"inconclusive: 89.1 µM [inhibitor, single point]"
22,O=C1C2CCCC1C(N1CCCCC1)CC2 (stereo not drawn),"inconclusive: 39.8 µM [inhibitor, single point]"
23,COC(=O)C1=C(c2ccc3ccccc3c2)C[C@@H]2CC[C@H]1N2C(=O)NCc1ccco1,active: 50.1 µM
24,CC(C)c1ccc(N2C(=O)NC(=O)/C(=C\c3cnc(-c4ccccc4)nc3)C2=O)cc1,inactive
25,CCOP(=O)(Cc1ccc(C#N)o1)OCC,inactive

row,Structure (SMILES),Potency
1,Cc1ccc(-n2c(/C=C/c3ccc(Br)s3)nc3ccccc3c2=O)cc1,"inconclusive: 14.1 µM [inhibitor, full curve]"
2,CC(N)C(=O)OC(C)(C)Cc1ccc(Cl)cc1 (stereo not drawn),inactive
3,O=C1C=Cc2ccccc2C1=O,active: 39.8 µM
4,c1ccc(-c2ccc(-c3n(-c4ccccn4)c4ccccc4[n+]3-c3ccccn3)cc2)cc1,"inconclusive: 39.8 µM [inhibitor, partial curve]"
5,COc1cc(OC)c(OC)cc1/C=C1\C(=O)NC(=O)N(Cc2ccccc2)C1=O,inactive
6,CC(C)c1ccc(-n2c(O)c(/C=N/NC(=O)c3ccncc3)c(=O)[nH]c2=O)cc1,"inconclusive: 79.4 µM [inhibitor, single point]"
7,COc1cc(OC)c(OC)cc1CN1CCN(C(=O)COc2ccc3ccccc3c2)CC1,active: 44.7 µM
8,O=[N+]([O-])c1cc(S(=O)(=O)c2ccc(O)c([N+](=O)[O-])c2)ccc1O,active: 50.1 µM
9,C=CCn1c(O)c(C(CC)=Nc2cc(OC)ccc2OC)c(=O)[nH]c1=O,"inconclusive: 89.1 µM [inhibitor, single point]"
10,CNCCCN1c2ccccc2CCc2ccccc21,"inconclusive: 89.1 µM [inhibitor, single point]"
11,O=C(CN1CCCC1=O)Nc1ccccc1,"inconclusive: 10 µM [inhibitor, single point]"
12,Fc1ccc2c(c1)nnn2C1CCN(Cc2nnnn2CCc2ccccc2)CC1,"inconclusive: 89.1 µM [inhibitor, single point]"
13,O=C(O)CSC(=S)N1CC2CC(C1)c1cccc(=O)n1C2 (stereo not drawn),"inconclusive: 89.1 µM [inhibitor, single point]"
14,CC(C)c1ccc(C(O)P(=O)(OCc2ccccc2)c2ccc(N(C)C)cc2)cc1 (stereo not drawn),"inconclusive: 25.1 µM [inhibitor, full curve]"
15,O=C1NC(=O)N(Cc2ccco2)C(=O)/C1=C/C=C/c1ccco1,active: 31.6 µM
16,CCCCCCNc1nc(OC)nc(N2CC3CC(C2)c2cccc(=O)n2C3)n1 (stereo not drawn),inactive
17,Clc1ccc(C(Cn2ccnc2)OCc2csc3c(Cl)cccc23)c(Cl)c1 (stereo not drawn),active: 10 µM
18,Fc1ccc(CNCCc2ccc3c(c2)OCO3)cc1,"inconclusive: 89.1 µM [inhibitor, single point]"
19,CCC(=NCCCN(CC)CC)c1c(O)n(C2CCCCC2)c(=O)[nH]c1=O,inactive
20,COc1cc(C(=O)OCc2cc(=O)c(O)co2)ccc1OC(F)F,"inconclusive: 50.1 µM [inhibitor, partial curve]"
21,O=[N+]([O-])c1ccccc1CNCCc1c[nH]c2ccccc12,active: 50.1 µM
22,CN1C(=O)/C(=C/c2cccn2-c2ccc3ccccc3c2)C(=O)NC1=S,active: 44.7 µM
23,Cn1cc2c([N+](=O)[O-])cc([N+](=O)[O-])cc2n1,"inconclusive: 56.2 µM [inhibitor, partial curve, poor fit]"
24,Cc1ccc(OCCOc2cccc(C=C3C(=O)NC(=O)NC3=O)c2)cc1,"inconclusive: 89.1 µM [inhibitor, single point]"
25,O=C(N/N=C/c1ccncc1)c1cnccn1,"inconclusive: 100 µM [inhibitor, single point]"

row,Structure (SMILES),Potency
1,CCOC(=O)C1=CC(=C2C(=O)N(CC)C(=S)N(CC)C2=O)c2ccccc2O1,"inconclusive: 44.7 µM [inhibitor, partial curve]"
2,Cc1cccn2c(=O)c3c(nc12)N1CCCCCC1C1(C3)C(=O)N(C)C(=O)N(C)C1=O (stereo not drawn),inactive
3,CSc1ccc(C(=O)C2CCCN(Cc3cc4ccccc4[nH]3)C2)cc1 (stereo not drawn),active: 20 µM
4,O=C1NC(=O)N(Cc2ccco2)C(=O)/C1=C\c1cccn1CCOc1ccc(Cl)cc1,active: 39.8 µM
5,C=CCn1c(O)c(C(CC)=Nc2ccc(N(C)C)cc2)c(=O)[nH]c1=O,"inconclusive: 50.1 µM [inhibitor, partial curve]"
6,COC(=O)c1cn(CCOc2ccccc2)c2ccccc12,inactive
7,CC(C)c1ccc(N2C(=O)NC(=O)/C(=C/C=C/c3ccco3)C2=O)cc1,"inconclusive: 50.1 µM [inhibitor, partial curve]"
8,CCC1(C)CC(C(N)=S)CCO1 (stereo not drawn),"inconclusive: 35.5 µM [inhibitor, partial curve]"
9,COc1ccccc1-n1c(O)c(/C=N/NC(=S)Nc2ccccc2)c(=O)[nH]c1=S,"inconclusive: 79.4 µM [inhibitor, single point]"
10,O=[N+]([O-])c1ccc(S(=O)(=O)NCC(c2ccco2)N2CCc3ccccc3C2)cc1 (stereo not drawn),"inconclusive: 70.8 µM [inhibitor, single point]"
11,O=C(Cc1ccccc1)OCCNC(=O)c1cccnc1,"inconclusive: 89.1 µM [inhibitor, single point]"
12,O=C(c1ccc(F)cc1)N1CCC2(CC1)OCCO2,inactive
13,CCN(CCNc1ccc([N+](=O)[O-])c2cccnc12)S(=O)(=O)c1ccc(Cl)cc1,inactive
14,CC(=O)NCCc1c[nH]c2ccccc12,"inconclusive: 89.1 µM [inhibitor, single point]"
15,Brc1ccccc1CNCCc1ccc2c(c1)OCO2,"inconclusive: 70.8 µM [inhibitor, single point]"
16,S=C(NCCc1ccccc1)NCCc1cnc[nH]1,"inconclusive: 89.1 µM [inhibitor, single point]"
17,COc1ccc([N+](=O)[O-])cc1N=Cc1c(O)n(CCc2ccccc2)c(=O)n(C(C)C)c1=O,"inconclusive: 35.5 µM [inhibitor, partial curve]"
18,Cc1cccc(N2CCN(CCc3ccccc3)CC2)c1C,"inconclusive: 89.1 µM [inhibitor, single point]"
19,CCCCCCCCn1sccc1=O,"inconclusive: 89.1 µM [inhibitor, single point]"
20,CCOc1ccccc1CN1CCN(S(=O)(=O)CC)CC1,active: 50.1 µM
21,O=[N+]([O-])c1ccc(NCc2ccc(Cl)cc2)c2ccncc12,"inconclusive: 28.2 µM [inhibitor, full curve, poor fit]"
22,O=C1NC(=O)N(Cc2ccc(F)cc2)C(=O)/C1=C\C=C\c1ccco1,active: 56.2 µM
23,N#CC(C#N)=NNc1ccc([N+](=O)[O-])cc1,active: 39.8 µM
